# Data reported in PubChem BioAssay (NCI).
# The source holds several records for some structures; these can differ, active in one and inactive in another.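 Single-concentration screen, 48 h exposure, 96-well plates. Endpoint: percent growth. Below 10 = active.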 For part of its entries the source gives two or more results. The other results are left out here. The source may hold further records. This drug was run again and again over the years, at the concentration stated with the values; each value is one run. Marks such as (2×) say how often a value occurs here.
# Test system: SF-539 CNS
# Experiment: NCI-60 one-dose screen, 48 h (100 = growth as untreated, 0 = no growth, -100 = all killed)
# Conditions: 0.25 µM
structure (smiles),measurement,setting,value
COc1cccc2c1C(=O)c1c(O)c3c(c(O)c1C2=O)C[C@@](O)(C(=O)CO)C[C@@H]3OC1CC(N)C(O)C(C)O1 (stereo not given in full),growth,runs of 2006,"active: -15.8%, -0.894%"
same,growth,runs of 2007,"inactive: 12, 32.8, 12.1, 10.3, 18.6, 17, 13.9, 20, 18.3, 16.9, 31.2, 22.2, 17.8 (2×), 26.9, 34.4, 25.3, 29.1, 24.7, 12.4, 31.7, 53.9, 56.5, 25 (2×), 38.2, 30.2, 34, 28.2, 35, 27.8, 54.5, 50.7, 28.3, 15.1, 15.6, 23.4, 24.2% and active: 7.85, 3.94, 4.7, 6.14%"
same,growth,runs of 2008,"inactive: 32.6 (2×), 36.3, 42.1, 36.6, 25.5, 35.4, 28.5, 32.4, 33.4, 41.1 (2×), 45.8, 48.1, 21.5 (2×), 16.6, 15.8 (2×), 23.3, 22.4 (2×), 14.8, 32, 13.7, 89.2, 21.8, 10, 12, 14.7, 22, 41.7, 39.4, 24.8, 30.8, 30.9, 31.3, 23.7, 18.8, 24.5% and active: 3.44, 7.29, 7.12, 7.46, -10.9, 9.14, -20.5, 9.73, -8.81, -6.21, 9.26, -1.79%"
same,growth,runs of 2009,"inactive: 24.2, 20.1, 26.4, 24.4, 21.9, 24.8, 16.4, 22.2, 16.7, 12.8, 21.2, 16.5 (2×), 18 (2×), 15.1, 11, 12.2, 20.9, 13.7, 11.6, 20, 14.8, 14.1, 10.6, 16.9, 15, 12.9, 31.1, 26.1, 30, 29.8, 22 (2×), 30.9, 17.4, 14.4, 23.2, 31.7, 42.9, 32.7, 34.6, 34.3, 36, 39.3, 39.4, 24.7 (2×), 13.8, 33.4, 29.5, 31.8, 46.8, 19.1, 19, 33.9, 23.8, 39.9, 33.1, 31.9, 17.8% and active: 6.52, 8.65, 9.36, 9.94, 9.8%"
same,growth,runs of 2010,"inactive: 23.6 (2×), 22.8, 19.5, 25.2, 27.6, 17.6, 37.1, 34.8, 31.4 (2×), 28.6, 29.2, 15.8, 25.7, 24.2, 17.4, 17.3, 25.8, 33.8, 23.5, 37.4, 10.3, 33.2, 42.9, 22.4, 27, 23.3, 24.3, 28.8, 26.2, 43.5, 23.2, 19.2 (3×), 22.2, 12.5, 16.6, 12.7, 31.2, 17, 15.2, 28.3 (2×), 23.1, 26.4, 24.8, 30.5% and active: 7.28%, 5.34%"
same,growth,runs of 2011,"inactive: 25 (2×), 22, 29.5 (2×), 24.3, 30.9, 12, 24.2 (3×), 25.5, 11.5, 32.6, 27.9, 26.1, 25.3 (2×), 29.7, 22.2 (2×), 27.1, 30.1, 21.5, 33.4 (2×), 20.5, 31, 32.3, 26.5, 37.4, 40.5, 39.2, 27.3, 15.6 (2×), 24.7 (2×), 21.4 (2×), 24.1, 14.1, 18.6 (2×), 21.7, 26.9, 18, 14.5, 18.8, 23.2, 19.6, 22.5, 27.6, 23.9, 31.2, 20.9% and active: 9.3%"
same,growth,runs of 2012,"inactive: 23.8, 25.9, 26, 31.9, 23.6 (2×), 23.1, 31.4 (2×), 32, 42.8, 30.1, 25.2, 29.7, 38.4, 24.8, 34, 40.4, 41.4, 37.1, 33.8, 17.6, 29.2, 33.1, 32.2 (2×), 40.2, 27.9, 25.6, 26.3, 28.5, 24.2, 29.9, 18.1, 16.7, 28 (2×), 33.6, 18.3, 24.9, 27.3, 39.1, 24.7, 38.1, 31.1, 35.4, 40.5, 52.1, 40.6, 42.4, 36.9, 33.3, 27.6 (2×), 34.5, 45.6, 50.7, 49.8, 36.6, 34.2, 32.1, 43.5, 27.2, 10.9, 13.9, 20.3, 18.8, 29.6, 44.1, 21.6, 19%"
same,growth,runs of 2013,"active: 2.01, -1.49, 9.59, 9.81, 1.62, -4.84, 4.06, 6.83, 9.77% and inactive: 20.3, 23.2, 17.4, 28.1, 42.5, 28 (2×), 29.6, 29.9, 38.9, 25.7, 30.6, 46.9, 25.3, 32.3, 22.3 (2×), 24.2, 27.5, 39.5, 24.1, 24.7, 31.1, 29.2, 21.7, 31 (2×), 29.4, 30.4, 25.9, 27.1, 38.6, 35.6, 50.3, 38.1, 43.1, 36, 39.2, 35.8, 47.9, 19, 24.6 (2×), 27.7, 42.9, 25.5, 37.9, 53.2, 50, 44.5, 28.2, 36.8, 50.5, 33, 45.8, 37.3, 27.3, 23, 32.5, 12.1, 12.4, 14.7, 13.5, 20.5, 13.9, 10.2, 11.1%"
same,growth,runs of 2014,"inactive: 15.6 (2×), 18.1 (2×), 11.7 (3×), 21.1, 16.4, 22.5, 30.3, 26.2, 24 (3×), 30.6, 25.9 (2×), 28.3, 28.1, 35.2, 12.5, 14.4, 18, 12.9 (2×), 15.8, 11.1, 14, 16.7, 15.2 (2×), 12.2, 13.8, 11.4, 14.5, 11.6, 10.1 (2×), 17.7, 21.7, 23.3, 27.6, 14.7, 22.1, 14.6, 13.5, 27.4, 26.1, 22.2, 23.4, 18.2, 23.2, 27.9, 24.6, 31.3, 21.4, 37, 28, 17.6, 23.9% and active: 5.62, 5.04, 7.57, 9.23, 3.37, 8.44, -0.962, 1.65, 3.42, 3.5, 5.86, 8.19, 0.707, 8.72, 7.54, 8.54%"
same,growth,runs of 2015,"inactive: 22.8, 24.5 (2×), 23.9 (2×), 23.8 (3×), 31.6, 21.7 (2×), 13.1, 18.4, 29.2, 29, 23.2, 39.6, 22.5 (2×), 14.8, 10.9, 11.7, 16, 26.3, 30.4 (2×), 24.4, 27.3 (2×), 27, 24.6, 31.7, 23, 22.9, 42.2, 33.9, 35.8, 20.6, 23.4 (2×), 23.6 (2×), 26, 30, 28.1, 28.8 (2×), 33.8, 22, 18, 11, 15.8, 20.2, 19.2, 16.7 (3×), 21.5 (2×), 25.8, 47.7, 21.1 (2×), 37, 27.1, 41.9, 34.6, 24.9 (2×), 33.1, 33.4 (2×), 32.9, 26.6, 28.6, 27.9, 34, 31.8 (2×), 32.1, 30.8, 25.3, 27.5, 20.9, 32.6% and active: 9.17%"
same,growth,runs of 2016,"inactive: 27.8, 26, 34.6, 33.6 (2×), 38, 54.2, 24 (3×), 25.7 (2×), 36 (2×), 29.7, 30.7 (2×), 27 (2×), 40.2, 31.3, 38.8, 34, 16.1, 33.5, 33.7, 23.1 (2×), 25.3, 30.5, 21.6, 28.4, 21.7, 21.8, 20.5, 26.4, 23.9, 26.2, 33.1, 32.5, 22.8, 33.4, 43.4, 43, 32.6, 41.1 (2×), 37.8, 33.8, 35.8, 34.1, 33.2, 25.8 (3×), 27.1, 24.9, 30.8, 29.1, 29.3, 37.1 (2×), 29.4, 26.3, 38.6, 31.1, 30.4, 29.8, 29.6, 36.8, 35.6, 37.9, 43.8, 43.5, 46, 42, 37.3, 28.5, 29, 37.4, 29.2, 30.1, 26.1, 31.2, 24.6, 32.3, 40.1%"
same,growth,runs of 2017,"inactive: 26.2, 31 (2×), 24.9, 27.8, 26.1 (2×), 27.4, 12.2, 19.2, 25.5, 28.8, 24.1, 24.4, 20.9, 20.1 (2×), 28.2, 30.3, 22.8, 13.4, 17.2, 18.2 (2×), 15.8, 14.6, 18.8, 22.1, 25.7, 16.8, 20.5 (3×), 22.3 (3×), 23.8 (2×), 19.7, 22.5, 25.6, 29.2 (2×), 25, 26.4, 24.7, 31.1, 34.4, 21.3 (2×), 15.6, 22.2, 29.5, 29.8, 18.4, 19.5, 29.9, 23.9, 21.8, 27.3 (2×), 22.9 (2×), 23.4, 31.7, 14.5, 13.5, 21.7, 30.2, 24, 37, 44.2, 26.5, 21.6, 26%"
same,growth,runs of 2018,"inactive: 34.3, 38.2, 25, 23.5, 37, 37.8 (2×), 26.4 (2×), 34.1, 30.7, 28.1, 27.3 (2×), 33.6, 42.4, 31.6, 29.2, 32.6 (2×), 23.9, 28.3, 21.8 (2×), 29.5, 23, 25.6, 26.1, 22, 24.7, 26.9, 22.2, 14.4, 19.7, 25.9, 28.4, 28.9, 31.7 (2×), 32.3, 28.8, 24.1, 35.3, 38, 27, 24.3, 31.2, 30.1, 31.9, 26.6, 37.2, 47.3, 37.4, 12.3, 15.4%"
same,growth,runs of 2019,"inactive: 14, 25.2, 14.1, 16.2, 27.9, 23.8 (2×), 16.8, 20.5, 26.1 (2×), 24.5, 36.5 (2×), 29.1, 29.7, 15.9, 18.1, 19.5, 13.7, 20.6, 21.8, 20.4, 27.1, 33.8, 21.7, 25.5, 26.2 (2×), 26.4 (2×), 31.1, 25.6, 26.5, 28.9, 23, 29.9, 25.7, 23.1, 24.1, 22, 24.4, 33.1, 20.9, 14.7, 24.2, 22.7% and active: 4.85%"
same,growth,runs of 2020,"inactive: 12.1, 26.1, 25, 21.2, 22.7, 24.2, 25.3, 25.5, 23.6, 21.6, 19, 22.1, 23.9, 38.8, 29.4 (2×), 28, 38.5, 38, 32.2, 30.9, 28.6, 33.5%"
